Our source for the self-cleavage values is the RNAGym collection of RNA variant scans (doi:10.7554/elife.90254).

Sequences and labels used below:
B1: OR4K15 (parent)
chain: GUUAACGGUCAUAGGCCAUGGAAACUAGGAGCACCAUUUCGCUGCCAGUGAAGAAAUGAACAAAGAAAAUCUGGGCCAGGCAGGCAUCAAAAGAAAUAGUCUUGCGCUCAACCAGAAAGUCUGUAAUCAUUUUAAGGGUA

The source gives no read counts; variants with many changes may rest on few reads.

The data set covers variants of B1. The data set can be described thus: self-cleavage, relative activity (ratio to wild type); higher = more cleavage; in vitro, sequencing; the parent is a self-cleaving ribozyme.
Take GUUAACGGUUAUAGGCCAUGGAAACUAGGAGCACCAUUUCGCUGCCAGUGAAGAAAUGAACAGAGAAAAUCUGGGCCAGGCAGGCAUCAAAGGAAAUAGUCUUGCGCUCAACCAGAAAGUCUGUAAUCACUUUAAGGGUA [C10U A63G A92G U130C]: the self-cleavage worked out at 0.89.

Consider GUUAACGGUAAUAGGCCAUGGAAACUAGGAGCACCAUUUCGCUGCCAGUGAAGAAAUGAACAAAGAAAACCUGGGCCAGGCAGGCAUCAAAAGAAAUAGUCUUGCGCUCAACCAGAAAGUCUGUAAUCAUUUUAAGGGCA [C10A U70C U139C], for which the self-cleavage is 0.8.

Consider GUUAACGGUCCUAGGCCGUGGAAACUAGGAGCACCAUUUCGCUGCCAGUGAAGAAAUGAACAAAGAAAAUCUGGGCCAGGCUGGCAUCAAAAGAAAUAGUCUUGCGCUCAACCAGAAGGUCUGUAAUCAUUUUAAGGGUA [A11C A18G A82U A118G], for which the self-cleavage came to 0.17.

Consider GUUAACGGUAAUAGGCCAUGGAAACUAGGAGCACCAUUUCGCAGCCAGAGAAGAAAUGAACAAAGAAAAUCUGGGCCAGGCAGGCAUCAAAAGAAAUAGUCUUGCGCUCAACCAGAGAGUCUGUAAUCAUUUUAAGGGUU [C10A U43A U49A A117G A140U], for which the self-cleavage is 2.32.

On to GUUAACGGUAAUAGGCCAUGGAGACUAGGAGCACCAUUUCGCUGCCAGUGAAGAAAUGAACAAAGAAAAUCUGGGCCAGGCAGGCAUCAAAAGAAAUAGCCUUGCGCUCAACCAGAAAGUCUGUAAUCAUUCUAAGAGUA [C10A A23G U100C U132C G137A], for which the self-cleavage came out at 1.66.

As to GUUAACGGUCCUAGGCCAUGGGAACUAGGAGCACCAUUUCGCUGCCAGUGAAGAAAUGAACAAAGAAAAUCUGGGCCGGGCAGGCAUCAAAAGAAAUAGUCUUGCGCUCAACCAGAAAGUCUGUAAUCAUCUUAAGGGUA [A11C A22G A78G U131C], the self-cleavage was determined as 0.22.

With GUUAACGGUCCUAGGCCAUGGAAACUAGGAGCACCGUUUCGCUGCCAGUGAAGAAAUGAACAAAGAGAAUCUGGGCCAGGCAGGCAUCAAAGGAAAUAGUCUUGCGCUCAACCAGAAGGUCUGUAAUCAUUUUAAGGGUA [A11C A36G A67G A92G A118G], the self-cleavage was found to be 1.05.

Regarding GUUAACGGUUAUAGGCCAUGGAUACUAGGAGCACCACUUCGCCGCCAGAGAAGUAAUGAGCAAAGAAAAUCUGGGCCAGGCAGGCUUCAAAAGAAAUAGUCUUGCGCUCAACCAGAAAGUCUGUAAUCAUUUUAAGGGUA [C10U A23U U37C U43C U49A A54U A60G A86U], the self-cleavage is 0.57.

Consider GUUAACGGUUAUAGGCCAUGGAGGCUAGGAGCACCAUUUCGCUGCCAGUGAAGAAAUGAACAAAGAAAAUCUGGGCCAGGCAGGCAUCAAAAGAAAUAGUCUUGCGCUCAACCUGGGAGUCAGUAAUCAUUUUAAGGGUA [C10U A23G A24G A114U A116G A117G U122A], for which the self-cleavage was determined as 0.

For GUUAACGGUAAUAGGCCAUGGAAACUAGGAGCACCAUUUCGCUGCCAGUGAAGAAAUGAACACAGAAAAUCUGGGCCAGGCAGGCAUCAGAAGAAAUGGUCUUGCGCUCAACCAGAAAGUAUGUAAUCAUUUUAAGGGUA [C10A A63C A90G A98G C121A], the self-cleavage amounted to 2.01.

Consider GUUAACGGUUAUAGGCCAUGGAAACUAGGAGCACCAUUUCGCUGCCAGUGAAGAAAUGAACAAAGAAAAUCUGGGCCAGGCAGGCAUCAAAAGAAAUAGUCUUGCGCUCAACCAGAAAGUCUGUAAUCAAUUCGAGGGUA [C10U U130A U133C A134G], for which the self-cleavage worked out at 0.43.

Take GUUAACGGUUAUAGGCCGUGGAAACUAGGAGCACCAUUUCGCUGCAAGUGAAGAAAUGAACAAAGAAAAUCUGGGCCAGGCAGGCAUCAAAAGAAAUAGUCUUGCGCUCAACCAGAAAGUCUGUAAUCAUUUUAAGGGUA [C10U A18G C46A]: the self-cleavage was determined as 0.52.

Turning to GUUAACGGUCCUAGGCCAUGGAAACUAGGAGCACCAUUUCGCUGCCAGUGAAGAAAUGAACAAAGAGAAUCUGGGCCAGGCAGGCAUCGAAAGAAAUAGUCUUGCGCUCAACCAGAAAGUCUGUAAUCAUUUUAAGGGUA [A11C A67G A89G], the self-cleavage is 2.05.

As for GUUAACGGUUAUAGGCCAUGGAAACUAGGAGCACCAUUUCGCUGCCAGUGAAGAAAUGAACAAAGAAAAUCUUGGCCAGGCAGGCAUCAAAAGAAAUAGUCUUGCGCUCAACCAGAGAGUCUGUAAUCAUUUUAAGGGUA [C10U G73U A117G], the self-cleavage worked out at 0.08.

On to GUUAACGGUUAUAGGCCAUGGAAACUAGGAGCACCAUUUCGCUGCCAGUGAAGAAAUGAACAAAGAAAAUCUGGGCCAGGCAGGCAUCAAAAGAAAUAGUCUUGCGCUCAGCCAGAAAGUCUGUAAUCAUCUUAAGGGUA [C10U A111G U131C], for which the self-cleavage was 0.08.

Regarding GUUAACGGUUAUAGGUCAUGGAAACUAGGAGCACCAUUUCGCUGCCAGUGAAGAAAUGAAUAAAGAAAAUCUGGGCCAGGCAGGCAUCAAAAGAAUUAGUCUUGCGCUCAACCAGACAGUCUGUAAUCAUUUUAAGGGUA [C10U C16U C61U A96U A117C], the self-cleavage was 0.78.

As for GUUAACGGUUAUAGGCCAUGGAAACUAGGAGCACCAUUUCGCUGCCAGUGAAGAGAUGAACAAAGAAAAUCUGGGCCAGGCAGGCAUCAAAAGAAAUAGUCUUGCGCUCAACCAGAACGUCUGUAAUCAUUUUAAGGGUA [C10U A55G A118C], the self-cleavage worked out at 1.09.

In the case of GUUAACGGUUAUAGGCCAUGGAAACUAGGGGCACCAUUUCGCUGCCAGUGAAGAAAUGAACAAAGAAAAUCUGGGCCAGGCAGGCAUCAAAAGAUAUAGACUUGCGCUCAACCAGAAAGUCCGUAAUCAUUUUAAGGGUA [C10U A30G A95U U100A U122C], the self-cleavage worked out at 0.98.

For the variant GUUAACGGGCAUAGGCCAUGGAAACUAGGAGCACCAUUUCGCUGCCAGUGAAGAAAUGAACAAAGAAAAUCUGGGCCAGGCAGGCAUCAAAAGAAAUAGUCCUGCGCCCAACCAGAAAGUCUGUGAUCAUUUUAAGGGUA [U9G U102C U108C A125G], the self-cleavage was found to be 0.

With GUUAACGGUUAUAGGCCAUGGAAACUAGGAGCUCCAUUUCGCUGCCAGUGAAGAAAUGAACAAAGAAAAUCUGGGCCAGGCAGGCAUCAAAAGAAAUGGUCUUGCGCUCAACCAGAAAGUCUGUAAUCAUUUUAAGGGUA [C10U A33U A98G], the self-cleavage was determined as 0.23.

GUUAACGGUUAUAGGCCAUGGAAACUAGGAGCACCAUUUCGCUGCCAGUGAAGAAAUGAACAAAGAAAAUCUGGGCCAGGCAGGAAUCAAAAGAGAUAGUCUUGCGCUCAACCAGAAAGUCUGUAAUCAUUUUAAGGGUA [C10U C85A A95G]: the self-cleavage worked out at 0.75.
